From PubChem BioAssay AID485297 (National Center for Advancing Translational Sciences (NCATS), 2010)
Screen size: about 320,000 compounds; about 9,100 (2.8%) were called active. Inconclusive means that the source gave no clear call. Such entries were picked first, then a sample of the others. The call rests on the fitted dose curve; in most records, active means well fitted activation curve with a large enough effect; inconclusive means small, poorly fitted or top-dose-only effect; inactive means no such curve, though single readings can be large or run the other way. No potency is given beside an inconclusive call; the fits are too rough.

test: qHTS Assay for Rab9 Promoter Activators; conditions: Huh7 Rab9 promoter-luciferase reporter, luminescence, 24 h; series mostly up to 9.22 µM; activation, negative = inhibition: at the top concentration; further: nearly all actives have a fitted effect of over 60% in size; on activation, negative = inhibition: % of control where 0% means no effect
Procedure, shortened: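 Using Huh7 cells stably transfected with Rab9 promoter–luciferase, compounds were incubated 24 h at 37 °C, 5% CO2; luciferase luminescence was read 10 min after reagent addition.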
Potency means the concentration at half of the fitted maximal effect; tags describe the fitted curve by direction and shape.

SMILES	Potency	activation, negative = inhibition
Cn1c(CN2CCCC2)nc2cc(NC(=O)c3ccco3)ccc21	inconclusive [activator, partial curve]	
CCn1c(C)nc2cc(C(=O)OC(C(F)(F)C(F)F)C(F)(F)C(F)F)ccc21	inconclusive [activator, single point]	
CCCOC(=O)c1ccc(NC(=O)Cc2cccs2)cc1	inconclusive [activator, single point]	
COc1ccc(NC(=O)C(=O)c2cn(CC(=O)N3CCCC3)c3ccccc23)c(OC)c1	inconclusive [activator, partial curve]	
CC(C)(C)c1nnc(SCC(=O)Nc2ccc(N3CCCCC3)cc2)n1N	inconclusive [activator, partial curve]	
Cc1cc(OCc2cn3cccnc3n2)ccc1Cl	active: 2.82 µM	
COc1ccccc1NC(=O)C(=O)N/N=C/c1cccs1	inconclusive [activator, partial curve]	
Clc1ccc2[nH]c(-c3ccccc3)cc2c1	active: 2.51 µM	
CC1CCC(NC(=O)c2ccc(NS(=O)(=O)c3ccc4[nH]c(=O)[nH]c4c3)cc2)CC1 (configuration not stated)	inconclusive [activator, single point]	
CC(C)N1CCc2c(sc(NC(=S)NC(=O)c3ccccc3)c2C#N)C1	inconclusive [activator, partial curve]	
Clc1ccccc1Nc1nc(-c2cccnc2)cs1	active: 0.708 µM	
Cc1cccc(Nc2ccc(NCc3ccccc3)nn2)c1	inconclusive [activator, single point]	
CC(Oc1ccc([N+](=O)[O-])cc1)C(=O)NCC1CCCO1 (configuration not stated)		inactive: -3.09%
Nn1c(SCc2cccc(Br)c2)nnc1-c1cccnc1		inactive: 3.03%
COc1ccc(NC(=O)CCSc2nc(C)cs2)cc1	inconclusive [activator, partial curve]	
COC(=O)/C=C1/S/C(=N/N=C/c2ccco2)NC1=O		inactive: 1.52%
O=C(Nc1nnc(CCc2ccccc2)s1)c1ccccc1	inconclusive [activator, partial curve]	
CN(C)CCCN(C(=O)c1sc2ccccc2c1Cl)c1nc2ccc(F)cc2s1		inactive: -3.99%
CCCNC(=O)OCc1cccnc1Sc1ccc(C)cc1	inconclusive [activator, single point]	
COCC(=O)Nc1c(C(=O)Nc2cccc(OC)c2)oc2ccccc12	active: 3.55 µM	
O=C(c1cc(-c2ccccc2O)on1)N1CCOCC1	inconclusive [activator, single point]	
CCCc1ccc2oc(C(=O)NCc3nnc(C)o3)c(C)c2c1	active: 2.82 µM	
COc1ccc(S(=O)(=O)Nc2ccccc2C(=O)N2CCCCC2)cc1C		inactive: -3.66%
O=C(Nc1ccc2oc(-c3ccccc3)nc2c1)c1ccncc1		inactive: 7.36%
COc1ccc(Oc2nccc(-c3ccccc3)c2C#N)cc1	inconclusive [activator, partial curve]	
Cc1cc(C)c([N+](=O)[O-])cc1-c1ccc(/C=N/c2c(-c3ccco3)nc3ccccn23)o1	inconclusive [activator, single point]	

SMILES	Potency	activation, negative = inhibition
O=C1/C(=C/c2ccc([N+](=O)[O-])cc2)CCc2ccccc21	inconclusive [activator, single point]	
Cc1onc(-c2ccccc2)c1NC(=O)Nc1ccc(OC(F)F)cc1		inactive: 0.673%
CC(=O)c1sc(N/N=C/c2cccc(O)c2)nc1C	inconclusive [activator, single point]	
Cc1ccc2c(CC(=O)Nc3cccc(S(=O)(=O)N4CCOCC4)c3)coc2c1		inactive: 4.09%
CC(C)Oc1cccc(C(=O)NC(=S)Nc2ccccc2)c1	active: 3.16 µM	
Cc1cc(C)cc(C(=O)NC(=S)Nc2ccc3c(c2)OCCO3)c1	inconclusive [activator, partial curve]	
O=C(c1cnn(-c2ccccc2)c1)c1ccc2ccccc2c1O	inconclusive [activator, single point]	
Cc1csc(N/N=C/c2ccc([N+](=O)[O-])cc2)n1	active: 2.82 µM	
COc1cc(C(=O)Nc2nncs2)cc(OC)c1OC	inconclusive [activator, single point]	
CC(=O)c1ccc(NC(=O)CSc2nc(N3CCOCC3)nc(N3CCOCC3)n2)cc1		inactive: 24.5%
O=C(CSc1cccs1)Nc1ccc2ccccc2c1	inconclusive [activator, partial curve]	
O=C(O)c1ccc(NC(=O)c2ccc(Cl)cc2)c(NC(=O)c2ccc(Cl)cc2)c1		inactive: 21.2%
Cc1nc2sc(C(=O)c3ccccc3)c(N)c2c2c1CCCC2	inconclusive [activator, single point]	
Cc1cccc(C(=O)Nc2sc3c(c2C(=O)O)CCC3)c1		inactive: 25.6%
CN(/N=C/c1ccccc1O)C(=S)c1ccccc1	inconclusive [activator, single point]	
O=C(COC(=O)CC1CCCC1)Nc1cc2c(cc1Cl)C(=O)c1ccccc1C2=O	active: 6.31 µM	
COc1ccc(-c2[nH]ncc2CN2CCCO2)c(F)c1		inactive: 0.658%
COc1ccc(COC(=O)c2ccc(Cl)c(S(=O)(=O)N3CC(C)OC(C)C3)c2)cc1 (configuration not stated)		inactive: -7.6%
Cc1cccc(NC(=O)c2cc(-c3c(C)cc(C)cc3O)n[nH]2)c1	inconclusive [activator, partial curve]	
COc1cccc(NC(=O)Nc2cccc(C(=O)O)c2)c1	inconclusive [activator, partial curve]	
C=CCSC(=C(C#N)C#N)c1cc2c([nH]1)CCCC2		inactive: -11.6%
O=C(CNC(=O)c1ccc(F)cc1)N/N=C/c1cn[nH]c1-c1ccccc1		inactive: -0.729%
Cc1cccc(NC(=O)c2cccc(OC(=S)N3CCOCC3)c2)c1C	inconclusive [activator, single point]	
COc1ccc(/C=C/C(=O)Nc2ccccc2)cc1OC	active: 3.16 µM	
COc1ccc(Cl)cc1-c1nc(-c2ccc(NC(=O)c3cccs3)cc2)no1	inconclusive [activator, partial curve]	
Cc1cnn(C(=S)NCCc2ccccc2)c1	inconclusive [activator, partial curve]	

SMILES	Potency	activation, negative = inhibition
Cc1ccc(C(=O)O)cc1NC(=S)NC(=O)c1ccc(-c2ccccc2)cc1	inconclusive [activator, single point]	
COc1ccc(-c2csc(Nc3cc(C)ccn3)n2)cc1C	inconclusive [activator, partial curve]	
CCC(=O)c1cc2c(cc1NC(=O)c1ccc(C)cc1)OCCO2		inactive: 0.0567%
CN(C)/C=N/C(=S)Nc1ccccc1Cl	inconclusive [activator, single point]	
CC(C)(C)C(=O)CSc1nnc(Nc2ccccc2)s1	inconclusive [activator, single point]	
Cc1nn(CC(=O)NCCCN2CCCC2)c(=O)c2nn(-c3ccccc3)c(C)c12		inactive: -11.4%
Cc1cccc(/C=N/N2CCN(c3ccccc3)CC2)c1	inconclusive [activator, single point]	
COc1ccc(CNc2ccc(-c3ccc(OC)cc3)nn2)cc1	inconclusive [activator, single point]	
O=c1cc(-c2ccccc2)[nH]n1-c1ccc([N+](=O)[O-])cc1	inconclusive [activator, single point]	
CC(=O)c1ccc(N2CCN(C(=O)C3CCN(S(=O)(=O)c4cccs4)CC3)CC2)cc1		inactive: -5.82%
COc1ccc(CCN2CC(C(=O)NCCc3ccccc3)CC2=O)cc1OC (configuration not stated)	inconclusive [activator, partial curve]	
Cc1cccc(OCC(O)CN2CC3(C)CC2CC(C)(C)C3)c1 (configuration not stated)		inactive: -5.83%
C/C(=N\Nc1nc(N2CCOCC2)nc(N2CCOCC2)n1)c1cccc([N+](=O)[O-])c1		inactive: -2.66%
CCc1ccc(NC(=S)NC(=O)CC(C)C)cc1	inconclusive [activator, partial curve]	
C=CCOC(=O)Cn1cnc2c(sc3nc(C)cc(C)c32)c1=O	inconclusive [activator, partial curve]	
Fc1ccc(SCCc2ccccn2)cc1	inconclusive [activator, single point]	
C/C(CC(=O)Nc1cccc(Cl)c1C)=N\NC(=O)C(=O)NCC(C)C		inactive: -0.537%
COc1ccc(C2SCC(C(=O)O)N2C(C)=O)cc1 (configuration not stated)	inconclusive [activator, single point]	
COc1ccc(N2Nc3n[nH]c(N)c3N2)cc1	inconclusive [activator, partial curve]	
Cc1cc(C)n2nc(C(=O)Nc3ccc4c(c3)OCCO4)nc2n1	inconclusive [activator, single point]	
Cc1ccc(C(=O)NNC(=O)c2ccccc2O)cc1S(=O)(=O)N1CCCCC1		inactive: -6.06%
O=c1oc(-c2cccs2)nc2sc3c(c12)CCCCC3	inconclusive [activator, single point]	
NC(=O)c1ccccc1NC(=O)/C=C/c1ccccc1	active: 1.78 µM	
c1coc(-c2nc(-c3ccncc3)no2)c1	inconclusive [activator, partial curve]	
O=C(CCc1nc2ccccc2c(=O)[nH]1)Nc1nnc(SCc2ccccc2F)s1	inconclusive [activator, single point]	
